Measured values: PubChem BioAssay AID624171 (National Center for Advancing Translational Sciences (NCATS), 2012)
The whole screen tested about 410,000 compounds, of which about 1,200 (0.29%) were called active. The shares of active, inactive and inconclusive entries below differ from those in the screen. Calls follow the shape of the dose curve; as a rule, active = well fitted activation curve with a large enough effect; inconclusive = small, poorly fitted or top-dose-only effect; inactive = flat fitted curve, though single readings scatter. Potencies beside an inconclusive call are fits to weak or partial responses and may not hold up.

assay: qHTS of Nrf2 Activators; settings: AREc32 ARE-luciferase reporter (MCF7-derived line), luminescence, 24 h; activation: at 46.1 µM (top of the series); also: nearly all actives have a fitted effect of over 65% in size; as to activation: % of control where 0% means no effect
Summary of the method: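 ARE-driven firefly luciferase activity in AREc32 cells measured after a 24 hr compound exposure at 37 deg C, using Steady-Glo reagent and a 30 min room-temperature hold.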
Potency is read from the fitted curve at half-maximal effect; tags tell the direction and shape of the fitted curve.

Potency, inconclusive:
CCOC(=O)c1ccc(-n2c(CCC(=O)O)ccc2-c2cccs2)cc1 31.6 µM [activator, single point]
CC(CCc1ccccc1)NC(=O)COC(=O)c1cc(NS(=O)(=O)c2ccc(Cl)c([N+](=O)[O-])c2)ccc1O (stereo unspecified) 28.2 µM [activator, single point]
CCN(CC)S(=O)(=O)c1cc(NC(=O)Cn2ncc(Cl)c(Cl)c2=O)ccc1C 3.98 µM [activator, single point]
C=C(C)C1(O)OC(=O)C=C1OC (stereo unspecified) 31.6 µM [activator, single point]
Cc1ccnc(NC(=O)c2cccs2)c1 11.2 µM [activator, partial curve]
COc1cc(C(C[N+](=O)[O-])c2c(N)n(C)c(=O)n(C)c2=O)ccc1O (stereo unspecified) 22.4 µM [activator, single point]
Cc1ccc(N=Cc2sc(O)c3ccccc23)cc1 15.8 µM [activator, single point]
COc1ccc(S(=O)(=O)NCc2ccco2)c2ccccc12 11.2 µM [activator, partial curve, poor fit]
O=C(OCC(=O)c1c[nH]c2ccccc12)c1ccco1 28.2 µM [activator, single point]
Cc1ccc(/C=N/Nc2nc3ccccc3[nH]2)s1 22.4 µM [activator, single point]
Cc1cc2nc(Sc3c([N+](=O)[O-])nc(C)n3Cc3ccccc3)[nH]c2cc1C 15.8 µM [activator, single point]
O=C(/C=C/Nc1ccc(F)cc1)c1ccco1 2.24 µM [activator, partial curve, poor fit]
CC(=O)NC(=C(Cl)Cl)S(=O)(=O)c1ccccc1 3.16 µM [activator, partial curve, poor fit]
C[C@H](CO)N1C[C@H](C)[C@@H](CN(C)Cc2ccccc2)Oc2ccc(NC(=O)CCCCCC(=O)Nc3ccccc3N)cc2C1=O 17.8 µM [activator, single point]
COc1cc(SC#N)ccc1N=Cc1c(C)[nH]n(-c2ccc(C)cc2)c1=O 14.1 µM [activator, single point]
O=C1CC(C(=O)Nc2ccc(Cl)c(Cl)c2)S/C(=N\N=C\c2ccco2)N1 (stereo unspecified) 2.82 µM [activator, full curve]
COc1ccc(S(=O)(=O)N/N=c2\oc3c(OC)cccc3cc2S(=O)(=O)c2ccc(C)cc2)cc1OC 17.8 µM [activator, single point]
O=C1C(C=Nc2ccc(F)cc2)=C(O)c2ccccc21 5.62 µM [activator, full curve]
Cn1cccc1/C=C1\CCc2ccccc2C1=O 6.31 µM [activator, full curve]
NC(=O)C1CCN(CCS(=O)(=O)c2ccc(Cl)cc2)CC1 20 µM [activator, single point]
COc1cc(/C=C/C(=O)c2ccc(O)cc2)ccc1OCC#N 3.55 µM [activator, partial curve, poor fit]
CCC(/C=C1\Sc2ccc(OC)cc2N1CCO)=C\c1sc2ccc(OC)cc2[n+]1CCO 31.6 µM [activator, single point]
COC(=O)c1ccc(-n2c(C)ccc2-c2ccccc2)cc1 31.6 µM [activator, single point]
CCN(CC)C(=O)c1cc2c(=O)n3ccccc3nc2s1 11.2 µM [activator, partial curve]
Fc1ccc2cnc(-c3ccccc3F)cc2c1 12.6 µM [activator, partial curve, poor fit]
O=C(c1ccccc1)c1cnc(-c2ccccc2)s1 11.2 µM [activator, partial curve, poor fit]
CC[n+]1c(/C=C2\C=C(C)CC(C)(C)C2)sc2ccccc21 28.2 µM [activator, single point]
CCc1nc2c(sc3nc4c(cc32)COC(C)(C)C4)c(=O)n1Cc1ccco1 20 µM [activator, partial curve, poor fit]
OCC#Cc1ncc(C(F)(F)F)cc1Cl 25.1 µM [activator, single point]

Potency, active:
Cc1ccccc1OCC(=O)Nc1ccccc1CO 10 µM
COc1ccc(C(C#N)=C2C=CC(=NO)C=C2)cc1 1.26 µM
Cc1ccc(S(=O)c2ccc([N+](=O)[O-])c3nonc23)cc1 (stereo unspecified) 17.8 µM
Cc1c(C(=O)NCc2ccco2)oc2ccccc12 14.1 µM
N/C(=N\OC(=O)c1ccco1)c1cccc([N+](=O)[O-])c1 14.1 µM
O=C(/C=C/Nc1ccc(F)cc1F)c1ccco1 6.31 µM
O=C(CCN1CCCCC1)c1ccc2c(c1)OCCO2 17.8 µM

activation, inactive:
COCCn1c(SCC(=O)Nc2sccc2C(N)=O)nc2cc(Cl)ccc2c1=O 3.37%
C=CCn1c(SCCC(=O)O)nnc1-c1cccs1 -0.0354%
O=C(NC1CCCCC1)c1cnn2c(C(F)(F)F)cc(-c3ccco3)nc12 4.1%
COc1ccc(CN2CCC(C(=O)NC(c3ccc4c(c3)OCO4)c3ccccn3)CC2)cc1 (stereo unspecified) 0.127% [at 9.22 µM]
O=C(Cn1ccccc1=S)c1ccc(Cl)c(Cl)c1 4.98%
CCOc1ccc(NS(=O)(=O)c2ccc(C(=O)N3CCCC(C)C3)cc2)cc1 (stereo unspecified) 0.0711%
Cc1ccc(N2CCN(C(=O)c3ccc4c(Cl)c5c(nc4c3)CCCC5)CC2)c(C)c1 0.292%
CCN(CC)CCNC(=O)c1cc(Cl)c(N)cc1OC 1.51%
N#Cc1c(NC(=O)c2ccc(-c3ccccc3[N+](=O)[O-])o2)sc2c1CCCC2 22%
CC1CC1C(=O)OCC(=O)N(C)CC(=O)Nc1ccc(F)cc1 (stereo unspecified) -0.075%
